In PubChem BioAssay AID1240 (Sanford-Burnham Center for Chemical Genomics, 2008):
The campaign covered roughly 50,000 compounds. About 800 (1.6%) showed an effect of 50% or more. The list shows a part of the results.

target: Bcl-2-like protein 10 (Homo sapiens) (UniProt Q9HD36); experiment: Phenotype converters, Bcl-B/TR3 peptide binding displacement, primary biochemical FP (AID 1240); conditions: GST-Bcl-B / FITC-TR3 peptide fluorescence polarization; stronger effect = higher value; compound at 3.75 mg/L;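 also: 0% = Bcl-B with tracer peptide and DMSO and 100% = tracer peptide lacking Bcl-B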
UniProt Q9HD36, sequence (Q9HD36 whole entry, looked up): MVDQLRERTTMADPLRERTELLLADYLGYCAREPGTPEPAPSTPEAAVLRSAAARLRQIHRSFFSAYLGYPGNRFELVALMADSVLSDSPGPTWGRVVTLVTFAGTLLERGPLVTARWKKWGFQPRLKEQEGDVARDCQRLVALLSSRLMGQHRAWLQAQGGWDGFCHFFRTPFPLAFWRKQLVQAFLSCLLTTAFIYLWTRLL

SMILES | displacement
Cc1cc(C)cc(NC(=O)C2CC(=O)N=C(N)S2)c1 (stereo not given) | 0.7%
CCOC(=O)c1ccc(NC(=O)/C=C/c2ccccc2)cc1 | -9.2%
COc1cccc(C(=O)/C=C/c2ccc(F)cc2)c1 | -3.3%
C=CCN1C(=O)/C(=C\c2ccc(-c3ccccc3[N+](=O)[O-])o2)C(=O)NC1=S | 44.4%
CCn1c(=O)c2c(n3cnnc13)-c1ccccc1CC21CCCCC1 | -4.2%
CSc1ccc(S(=O)(=O)NCCSc2ccccn2)cc1 | 12.3%
Cc1nn2c(C(F)(F)F)cc(-c3ccc(Cl)cc3)nc2c1C(N)=O | 1.1%
CCC(C(=O)Nc1nc(-c2ccccc2)c(C)s1)c1ccccc1 (stereo not given) | -9.3%
O=C1/C(=C/c2ccc(-c3ccc(Cl)cc3[N+](=O)[O-])o2)Sc2ccccc21 | -8.9%
O=C(N=Nc1c(O)n(Cc2ccccc2)c2ccccc12)c1ccccc1O | -4.9%
CCc1sc(-c2c(C#N)c(N)nc3c2CCCCC3)cc1Br | -4.2%
CC(C)c1ccc(NC(=O)C2CCCCC2C(=O)O)cc1 (stereo not given) | -3.6%
CCN(CC)c1ccc(NC(=O)c2ccc(F)cc2)cc1 | -4.3%
O=C(Nc1cccnc1)c1cc(-c2cccs2)nc2ccccc12 | 12.2%
CCOC(=O)c1c(NC(=O)c2cncc(Br)c2)sc2c1CCC2 | -3.2%
CC(C)C(NC(=O)c1ccccc1Br)C(=O)O (stereo not given) | 2.6%
c1ccc2oc(-c3ccc(NCc4ccc5c(c4)OCO5)cc3)nc2c1 | -3.2%
Cc1cccn2c(NC(=O)c3ccc(Br)cc3)c(-c3ccccc3)nc12 | 3%
COc1ccccc1NC(=O)CC1SC(=Nc2ccccc2)N(c2ccccc2)C1=O (stereo not given) | -7.3%
O=C(N/N=C/c1ccc(Br)cc1)C12CC3CCC(CC(C3)C1)C2 | 1.7%
C=CCOc1ccc(-c2nc3sc4c(c3c(=O)[nH]2)CCCC4)cc1OC | -4.9%
CC(CCc1ccccc1)NCC#N (stereo not given) | -3.3%

SMILES | displacement
Cn1c(=O)c2c(ncn2CC(=O)NNC(=S)Nc2ccccc2)n(C)c1=O | -15.2%
O=C(Nc1ccc(Cl)c(Cl)c1)N1CCN(C(c2ccccc2)c2ccccc2)CC1 | 22.9%
CCOC(=O)c1c(NC(=O)c2ccccc2F)sc2c1CCC(C)C2 (stereo not given) | 3.1%
CCOC(=O)c1cccc(P(=O)(C(C)C)C(C)C)c1 | -2.4%
CCN(CC)S(=O)(=O)c1cc(C(N)=O)ccc1Cl | -12.6%
COc1ccc(CCNC(=O)c2cc(Cl)ccc2Cl)cc1OC | 1.9%
O=C1NN(c2ccc(Cl)cc2)C(=O)/C1=C\c1cc(Cl)cc(Br)c1O | -5.3%
O=C(O)Cc1csc(-c2ccc(Cl)cc2)n1 | 6.5%
Nc1nc(-c2ccccc2)cn1/N=C/c1ccc(Cl)cc1Cl | -9.6%
CC(=O)Oc1ccc(-c2cccc(C(=O)NC(CO)C(O)c3ccc([N+](=O)[O-])cc3)c2)cc1 (stereo not given) | 10.4%
CCOc1cccc(NC(=O)Nc2cccc(C(F)(F)F)c2)c1 | -2%
CCc1cc2c(Nc3ccc(Br)cc3)ncnc2s1 | -24.8%
CCOc1ccc(/C=N/Nc2ccccn2)cc1 | -2.3%
COc1cc(Br)cc(/C=N/c2ncn[nH]2)c1O | -2.8%
CC1=NN(c2ccc(C(=O)O)cc2)C(=O)/C1=C\c1ccc(O)cc1 | -50.5%
CCC(O)c1ccc(OCc2ccccc2)c(OC)c1 (stereo not given) | -4.4%
Cc1[nH]n(-c2ccccc2)c(=O)c1C(c1c(Cl)cccc1Cl)c1c(C)[nH]n(-c2ccccc2)c1=O | 1.1%
Cc1nc2ccccc2c(=O)n1/N=C/c1ccccc1F | -7%
COc1cc([N+](=O)[O-])ccc1-c1ccc(/C=C2/C(=N)N3N=C(C(C)C)SC3=NC2=O)o1 | 77%
CC(C)CCNC(=O)c1ccc(Cl)cc1Cl | -7.2%
O=C(Nc1ccc(F)cc1)c1ccco1 | 12.9%
CCC(=O)N1c2ccccc2NC2=C(C(=O)CC(C)(C)C2)C1c1ccc(C#N)cc1 (stereo not given) | -13.5%

SMILES | displacement
CC1=CC(C)(C)N(C(=O)c2ccc(F)cc2)c2ccc(OC(=O)c3ccc([N+](=O)[O-])cc3)cc21 | -7.2%
Cc1ccc(N(CC(=O)Nc2cccc3ccccc23)S(=O)(=O)c2ccc(F)cc2)cc1 | 0.1%
O=C(c1cc2nc(-c3ccc([N+](=O)[O-])cc3)cc(C(F)(F)F)n2n1)N1CCCC1 | 0.3%
O=c1c(/C=C(\O)c2ccc(F)cc2)nc2ccccc2n1-c1ccccc1 | 4%
O=C1NC(=O)N(c2cccc(Br)c2)C(=O)/C1=C/c1cccc([N+](=O)[O-])c1 | 0.3%
COc1ccccc1NC(=O)C(=O)N/N=C/c1ccc(C(=O)O)cc1 | 6.3%
O=C(NC(Cc1c[nH]c2ccccc12)C(=O)OCC(=O)c1cccc([N+](=O)[O-])c1)Oc1ccccc1 (stereo not given) | 5%
CC(OCc1ccccc1)C(NC(=O)OC(C)(C)C)C(=O)NCC1CCCO1 (stereo not given) | 2.3%
O=C(c1cccc(S(=O)(=O)N2CCOCC2)c1)N1CCOCC1 | -7.2%
O=C(Nc1cccc(F)c1)C1CC(=O)N(c2ccccc2)C1 (stereo not given) | 7.9%
Clc1ccc(-c2nc(Cc3ccccc3Cl)no2)cc1 | -7.5%
COc1ccc(N/C=C/C(=O)c2ccc(Cl)cc2)c(OC)c1 | 18.3%
COc1cccc(/C=N/NC(=O)c2cc(C)[nH]n2)c1OC | -9%
COC(=O)c1ccccc1NC(=O)c1ccccc1NC(=O)c1ccc(OC)cc1 | 2.1%
FC(F)(F)Oc1ccc(N=Cc2ccc(Br)s2)cc1 | 12.9%
O=C(Nc1ccc(-c2nc3cc(Cl)ccc3o2)cc1)c1cccs1 | -12.8%
COc1ccc(-c2ccc(-c3nnc(-c4cccc(C)c4)o3)cc2)cc1 | -5.4%
Clc1ccc(N2CCN(N=Cc3cccc(Br)c3)CC2)cc1 | -11.5%
c1ccc(Nc2nc(-c3ccccc3)[n+](-c3ccccc3)s2)cc1 | -0.4%
COc1ccccc1/C=C/C(=O)c1c(-c2ccccc2Cl)c2cc(Br)ccc2[nH]c1=O | 20.5%
Cc1cc(-c2ccc(/C=c3\sc4nc5c(C)cc(C)cc5n4c3=O)o2)c(C)c([N+](=O)[O-])c1 | -17.2%
CC(=O)N1c2ccccc2Sc2ccccc21 | -1.9%

SMILES | displacement
O=C(Nc1ccccc1C#Cc1ccccc1)c1cccnc1 | 1.4%
CCOC(=O)C1=C(C)N=c2s/c(=C\c3cccs3)c(=O)n2C1c1ccc(N(C)C)cc1 (stereo not given) | 3.2%
CC(=O)C12c3ccccc3C(c3ccccc31)C1C(=O)N(c3ccc(F)cc3)C(=O)C12 (stereo not given) | 12.6%
CC(O)c1cccc(NC(=O)c2nn3c(c2Cl)NC(c2ccco2)CC3C(F)(F)F)c1 (stereo not given) | -0.1%
CCc1nnc(NC(=O)C(CC)CC)s1 | -4.3%
O=C(c1ccccc1F)N1CCN(Cc2ccc(Cl)cc2)CC1 | -9.2%
Cc1cccc(C(=O)Oc2ccc(/C=C3/SC(=S)N(c4ccccc4)C3=O)cc2)c1 | 13.6%
O=C(/C=C/c1ccc(Cl)cc1)Nc1ccc(-c2nc3ncccc3o2)cc1 | 9.4%
Cc1oc(C(=O)O)cc1COc1ccc2oc3ccccc3c2c1 | 7.1%
COc1ccc(NC(=O)NCCc2ccc(Cl)cc2Cl)cc1OC | -4.4%
CCOc1ccc(-c2cc(C(=O)Nc3cccc([N+](=O)[O-])c3)c3ccccc3n2)cc1 | 4.4%
C/C(=N\NC(=O)c1ccccn1)c1ccc(F)cc1 | -18.6%
c1ccc(-c2cc(-c3cc(-c4ccccc4)on3)no2)cc1 | 2.6%
CC(C)(C)NCC(=O)Nc1ccc(S(N)(=O)=O)cc1 | -3.9%
Cc1cccc(NC(=O)COc2ccc(C(C)C)cc2)c1C | -8.6%
CN(C)c1ccc(/C=C2\C(=O)NC(=O)N(c3ccc(Cl)cc3)C2=O)o1 | -32.5%
COc1ccc(NC(=O)CC2Nc3cc(C)c(C)cc3NC2=O)cc1 (stereo not given) | -8%
CCOC(=O)C1=C(C)NC(C)=C(C(=O)OC)C1c1ccc([N+](=O)[O-])cc1 (stereo not given) | 4.3%
COc1cc(-c2nc(N)c3c(=O)oc4ccccc4c3n2)cc(OC)c1OC | 14.2%
O=C(Nc1nc2c(s1)C(=O)CCC2)c1ccccc1Cl | 10.3%
Cc1ccc(/C=C2/SC(=S)N(CCC(=O)N3CCCCC3)C2=O)cc1 | 10%
Cc1ccc(S(=O)(=O)Nc2cccc(Cl)c2)cc1[N+](=O)[O-] | 3%

SMILES | displacement
N#Cc1c(-c2ccc([N+](=O)[O-])cc2)c2c([nH]c1=S)CCCC2 | 3.8%
Clc1ccccc1-n1ncnc1-c1ccc(Br)cc1 | -4.7%
COc1cc(NC(=O)COc2cccc(C)c2C)c(OC)cc1Cl | -5%
O=C(CSc1nc2ccccc2s1)NNC(=O)NC1CCCCC1 | -8.5%
COc1ccc(C2CC(=O)C3=C(C2)Nc2ccccc2NC3c2ccccc2)cc1 (stereo not given) | 2.3%
CCOC(=O)c1ccccc1NC(=O)C(CC)c1ccccc1 (stereo not given) | 19.2%
CC(C)(C)c1ccc(/C=C/C(=O)Nc2ccc([N+](=O)[O-])cc2)cc1 | -0.8%
COC(=O)c1ccccc1NC(=O)CN(c1ccc(C)cc1)S(C)(=O)=O | 3.5%
CCN(CC)c1ccc(/C=C2\NC(=S)N(c3ccccc3)C2=O)cc1 | -61.8%
O=C(Nc1nc(-c2ccc([N+](=O)[O-])cc2)cs1)C1CC1c1ccccc1 (stereo not given) | -0.8%
C=CCc1cccc2cc(C(=O)Nc3ccc(C)c(C)c3)c(=O)oc12 | 7.3%
O=C(c1cccnc1)N1CCN(S(=O)(=O)c2ccc(Cl)cc2)CC1 | -0.2%
CCOc1cc(C(=S)N2CCOCC2)ccc1O | 14.5%
CC(C)CN1C(=O)/C(=C/c2ccc(Cl)cc2Cl)SC1=S | 11.7%
CCOc1cccc(-c2nnc(N)s2)c1 | 2.4%
NC1=NC(c2ccccc2)n2c(nc3ccccc32)N1 (stereo not given) | 8.7%
CC(C)(C)CC(C)(C)NC(=O)CSc1nnc(N)s1 | 0.6%
Nc1nonc1OCCN1CCN(c2ccc([N+](=O)[O-])c3cccnc23)CC1 | 7.2%
CCOC(=O)c1ccc(NC(=O)COc2ccccc2C)cc1 | -9.4%
COc1ccc(OC)c(NC(=O)c2ccc(CN3CCc4ccccc4C3)cc2)c1 | -2%
COc1ccc(NC(=O)c2ccc(F)cc2)cc1Cl | -14.3%
CCCCOC(=O)Nc1nnc(COc2ccccc2)s1 | 7.2%
